Among all 45,000 compounds or so, about 65 (0.1%) were called active. Calls follow the shape of the dose curve; as a rule, active = well fitted activation curve with a large enough effect; inconclusive = small, poorly fitted or top-dose-only effect; inactive = no such curve, though single readings can be large or run the other way. The list shows a part of the results.
Potency is read from the fitted curve at half-maximal effect.

UniProt P54803, sequence (P54803 whole entry, looked up): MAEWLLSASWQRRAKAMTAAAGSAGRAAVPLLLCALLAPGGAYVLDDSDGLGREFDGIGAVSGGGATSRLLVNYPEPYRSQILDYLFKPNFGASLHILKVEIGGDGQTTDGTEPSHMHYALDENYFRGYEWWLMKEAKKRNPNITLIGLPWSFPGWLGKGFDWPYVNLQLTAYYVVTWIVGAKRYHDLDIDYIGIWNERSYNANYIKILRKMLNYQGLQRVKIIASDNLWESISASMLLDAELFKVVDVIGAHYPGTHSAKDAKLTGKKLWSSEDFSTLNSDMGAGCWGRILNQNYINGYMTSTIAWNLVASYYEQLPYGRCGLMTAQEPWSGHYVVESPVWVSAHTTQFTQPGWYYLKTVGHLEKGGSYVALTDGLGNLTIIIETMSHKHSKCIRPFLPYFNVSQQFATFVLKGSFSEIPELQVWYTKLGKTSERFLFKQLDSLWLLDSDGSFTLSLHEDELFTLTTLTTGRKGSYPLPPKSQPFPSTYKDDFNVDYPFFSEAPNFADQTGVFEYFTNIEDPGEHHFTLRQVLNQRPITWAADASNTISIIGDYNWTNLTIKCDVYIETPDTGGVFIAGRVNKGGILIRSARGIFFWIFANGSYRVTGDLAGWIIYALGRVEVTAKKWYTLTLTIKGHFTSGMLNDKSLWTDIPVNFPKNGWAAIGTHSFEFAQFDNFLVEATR

This test has as its target Galactocerebrosidase (Homo sapiens) (UniProt P54803). Description: A Novel Cell-Based Assay to Identify Small Molecules for B -Galactocerebrosidase. Also: nearly all actives have a fitted effect of over 65% in size. As to activation: 0% is about no effect. To be noted: 145M-Twi-hGALC-G270D cells (Twitcher mouse brain line with human GALC G270D), HMU-beta-Gal fluorescence, 48 h; series mostly up to 57.5 µM; activation: at the top concentration. Put shortly:
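Fluorogenic HMU-b-Gal hydrolysis (0.1 mM final, pH 5.2 citrate-phosphate with 1 mg/mL sodium taurocholate; carbonate stop buffer) measures mutant GALC activity after compound treatment of live 145M-Twi Twitcher brain cells stably carrying human GALC-G270D, with wild-type GALC line alongside; activation sought.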
In the case of `O=C(O)c1ccc(OCCCOc2ccc(C(=O)O)cc2)cc1`, the “activation” value was inactive: -18.6%.

As to `COc1ccc(C(C)=O)cc1CSc1nc(NCc2ccccc2)c2ccccc2n1`, the “activation” value is inactive: -13.4%.

With `COc1ccc(NC(=O)C(C)N2Cc3ccccc3C2=O)cc1OC` (configuration not stated), the “activation” value is inactive: -16.7%.

For `Cc1ccc2c(c1)-c1c(cnc3cc(-c4ccc(Cl)cc4)nn13)CO2`, the “activation” value was inactive: -15.3%.

`COc1ccccc1CNC(=O)c1ccc2c(c1)nc(C)n2-c1cccc(C)c1`: the “activation” value is inactive: -11.7%.

`Cc1ccc(CCNC(=O)c2sc3nc4n(c(=O)c3c2C)CCCC4)cc1`: the “activation” value is inactive: -13.4%.

Take `CC(CNC(=O)c1cc2cc(S(=O)(=O)N3CCCCC3)ccc2n1C)c1ccccc1` (configuration not stated): the “activation” value was inactive: 3.36%.

Take `Cc1ccc2onc(CNC(=O)N3CCN(c4cc(Cl)ccc4C)CC3)c2c1`: the “activation” value is inactive: -9.85%.

As to `Cc1ccc(COC(=O)c2[nH]c3c(c2C)C(=O)CC(c2ccc(Cl)cc2)C3)cc1` (configuration not stated), the “activation” value was inactive: -12.5%.

Regarding `CC(C)OC(=O)c1ccc(NC(=O)CSc2nc(-c3cccs3)cc(C(F)(F)F)n2)cc1`, the “activation” value was inactive: -2.19%.

On to `CC(C)CC(=O)n1nc(-c2ccco2)nc1NCc1ccc(Cl)cc1`, for which the “activation” value was inactive: -9.16%.

Regarding `Cc1ccc2c(c1)c(=O)c1ccccc1n2CCCC(=O)Nc1ccc(C)c(C)c1`, the Potency is active: 39.8 µM.

Take `COc1ccccc1NC(=O)CCNS(=O)(=O)c1ccc2c(c1)CCN2C(=O)C1CC1`: the “activation” value is inactive: -12%.

For `O=c1c(NCCc2ccc(Cl)cc2)nccn1-c1ccccc1`, the “activation” value is inactive: -4.46%.

Regarding `COC(=O)c1ccc(-n2nnc(-c3nsc(NC(=O)c4ccc(Cl)cc4)n3)c2C)cc1`, the “activation” value was inactive: -5.89%.

`CCCSc1ncc(Cl)c(C(=O)Nc2sc3c(c2C(N)=O)CCCC3)n1`: the “activation” value was inactive: -8.8%.

`Cc1ccccc1CNC(=O)Cc1csc2ccccc12`: the “activation” value was inactive: -11.1%.

`O=C(OCC(O)CO)c1ccccc1Nc1ccnc2cc(Cl)ccc12` (configuration not stated): the “activation” value was inactive: -16.1%.

Turning to `CCN(CC)C(=O)c1sc2c(c1C)c(=O)n(Cc1ccccc1)c(=O)n2CC(=O)Nc1ccc(OC)cc1`, the “activation” value was inactive: -11.8%.

For `CN(c1ccccc1)S(=O)(=O)c1nnc(NC(=O)c2cccs2)s1`, the “activation” value is inactive: -18%.

Turning to `CCN(Cc1ccccc1)C(=O)CCS(=O)(=O)c1cc(Br)cc2c1N(C(=O)C1CC1)CC2`, the “activation” value is inactive: -14.8%.

For `CCOC(=O)c1c(C)oc2ccc(N(C(=O)c3ccncc3)S(=O)(=O)c3ccc(F)cc3)cc12`, the “activation” value is inactive: -10.5%.

For the compound `COc1ccc(OC)c(CCNC(=O)c2cc3cccc4c3n2CCS4)c1`, the “activation” value was inactive: -13.4%.

As to `Cc1ccc(C)c(N2CCN(S(=O)(=O)c3ccc(F)c(C(=O)Nc4ccc(Cl)cc4Cl)c3)CC2)c1`, the “activation” value was inactive: -18%.

For `Cc1cc2n(n1)CCCN2C(=O)Nc1ccc(C)c(Cl)c1`, the “activation” value is inactive: -9.05%.

For the compound `O=C(NCc1cccc(F)c1)C1CCN(c2nn3cc(-c4ccc(F)cc4)nc3s2)CC1`, the “activation” value is inactive: 9.97%.

Regarding `N#Cc1ccccc1Cn1c(=O)n(-c2ccccc2)c(=O)c2c3c(sc21)CCC3`, the “activation” value was inactive: -16.1%.

The values are drawn from PubChem BioAssay AID1159614 (National Center for Advancing Translational Sciences (NCATS), 2016).
